Source: PubChem BioAssay (NCI)
Values joined by “and” are separate entries in the source; they are usually repeats but may differ in a detail not shown here. Equal entries are not always repeated.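 All cell lines were grown in 96-well plates and treated with compound for 48 hours. GI50 = concentration required for 50% inhibition of growth. TGI: total growth inhibition.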

System: NCI-H322M lung
Assay: NCI tumour cell line growth inhibition, 48 h

Structure (SMILES)	TGI	GI50
N#Cc1c2c(c(Nc3ccc(F)cc3)n3c1nc1ccccc13)CCCC2	> 100 µM	
Brc1ccc(-c2[nH]c3ccccc3c2N=Nc2ccccc2)cc1	31.7 µM	
CCCN1CCN(c2ccc3nc(-c4ccc5nc(-c6ccc(C(F)(F)F)cc6)[nH]c5c4)[nH]c3c2)CC1	3.12 µM	1.73 µM
CCn1c(-c2nonc2N)nc2c(C#CC(C)(C)O)nc(CN3CCCC3)cc21	> 25 µM	> 25 µM
CC(=O)OC1CC(OC2C(O)CC(OC3C(O)CC(OC4CCC5(C)C(CCC6C5CCC5(C)C(C7=CC(=O)OC7)C(O)CC65O)C4)OC3C)OC2C)OC(C)C1OC1OC(CO)C(O)C(O)C1O (centres undefined)	1.88 µM	
COc1ccc(C(=O)NCCC2=CCCCC2)cc1	> 100 µM	
c1ccc(Cc2cc(-c3ccccc3)n[nH]2)cc1	33.1 µM	
Cc1cc2c(=O)cc(-c3cccs3)oc2c(C(=O)O)c1C	> 100 µM	
NC(=O)C(N)CC12CC3CC(CC(C3)C1)C2 (centres undefined)	> 100 µM	
C[C@]12CCC3c4ccc(O)cc4CC[C@H]3C1CC(=O)NC2=O (some centres undefined)	> 10 µM	
COC(=O)CN1Cc2cc(C)cc(c2O)CN(CC(=O)OC)Cc2cc(C)cc(c2O)CN(CC(=O)OC)Cc2cc(C)cc(c2O)C1	> 100 µM	
CN1N=C(N)c2cn(C3OC(COP(=O)(O)O)C(O)C3O)c3ncnc1c23 (centres undefined)	455 µM and 1650 µM and 809 µM	
CC(C)(C)C(=O)C(C(=O)c1ccccc1)C(=O)C(C)(C)C	> 100 µM	
O=C(CC(=O)N1N=C(N2c3ccccc3Sc3ccccc32)CC1c1ccccc1)Nc1ccccc1Cl (centres undefined)	> 100 µM	
C=CCN1C(N)=C(C#N)C(C#N)(C#N)C1CCC (centres undefined)	> 100 µM	
COc1ccc(-c2c(C#N)c(=O)nc(SC)n2C2OCC(OC(C)=O)C(OC(C)=O)C2OC(C)=O)cc1 (centres undefined)	> 100 µM	
N[C@H]1C[C@@H]1c1ccc(-c2cccc(O)c2)cc1	> 100 µM	40.5 µM
Cn1cc(-c2nonc2-c2cn(C)c3ccc(F)cc23)c2ccccc21	> 100 µM	1.24 µM
COc1ccc(N2C(Cl)C(=O)C2c2c[nH]c3ccccc23)cc1 (centres undefined)	> 100 µM	
O=C1C=CC=C[C@@H]2C(C3OCCO3)CC[C@H]12.[C-]#[O+].[C-]#[O+].[C-]#[O+].[Fe] (some centres undefined)	> 100 µM	> 100 µM
O=[As]O	> 100 µM	
COc1cc2c3c(c1O)-c1c(ccc(OC)c1OC)CC3N(C)CC2 (centres undefined)	> 100 µM	
COc1cc2c(cc1OC)C(C#N)(Cc1ccccc1)N(C(=O)c1ccccc1)C=C2 (centres undefined)	> 100 µM	
O=C1C(N2CCOCC2)=C(Cl)C(=O)c2ncccc21	> 10 µM	
CC1=C(C(=O)CC(=O)C(=O)Nc2cccc(C)c2C)Sc2ccccc2N1	> 100 µM	

Structure (SMILES)	TGI	GI50
CC(c1ccccc1)N1O[C@]12CC[C@@]1(C)C(CCCC13OCCO3)C2 (some centres undefined)	> 100 µM	
COc1ccc(C(=O)O)c(Br)c1OCc1ccccc1	> 100 µM	
O=C1C(Br)=CC2C1C1C3CCC3C2(Br)C12OCCO2 (centres undefined)	10.8 µM	3 µM
COc1ccc(-c2nc(N)n(C)c2SSc2c(-c3ccc(OC)cc3)nc(N)n2C)cc1	29.5 µM	
S=c1nc2sc3c(c2c(Nc2ccccc2)[nH]1)CCCC3	> 100 µM	
Cn1cc(C2=C(Oc3ccccc3)C(=O)NC2=O)c2ccccc21	> 25 µM	> 25 µM
O=C(CSc1nnc(-c2ccccn2)s1)N/N=C/c1ccc([N+](=O)[O-])cc1	> 100 µM	
COc1cccc2c(=O)c3c(n(C)c12)OC(C(C)C)C3 (centres undefined)	> 100 µM	
C1OC1C1CO1 (centres undefined)	> 100 µM	
Cn1c(=O)c2ccccc2c2ccccc21	> 100 µM	
Cc1cc(C)nc(NS(=O)(=O)c2ccc(NC(=O)c3cccc4c(Nc5ccc(S(=O)(=O)Nc6nc(C)cc(C)n6)cc5)c5ccc(Cl)cc5nc34)cc2)n1	> 100 µM	
COC1=CC(=O)[C@]2(C)[C@H](C1=O)C(C)[C@H]2c1ccc(OC)cc1 (some centres undefined)	> 100 µM	
CC(=O)OCC1OC(n2c3c(cc(C#N)c2=O)CCCCCC3)C(OC(C)=O)C(OC(C)=O)C1OC(C)=O (centres undefined)	> 100 µM	
O=C(O)CCN1CCN(CCC(=O)O)CCN(CCC(=O)O)CC1	> 100 µM	
CN1CCN(CC(=O)N2CCCn3c2nc2ccccc2c3=O)CC1	> 100 µM	
COc1ccc(C2SCc3nc4ccccc4n32)cc1 (centres undefined)	> 100 µM	
Cn1ccnc1Sc1ccc(/C=N\NC(=O)c2cccc(F)c2)cc1[N+](=O)[O-]	> 100 µM	
COc1cccc(CC2C(=O)N=C(NC(C)=O)N2C)c1OC(C)=O (centres undefined)	> 100 µM	
C[C@H]1CCC/C=C/[C@@H]2C[C@H](O)C[C@H]2[C@H](O)[C@@H](S(=O)C[C@@H](N)C(=O)O)CC(=O)O1 (some centres undefined)	17.4 µM	0.104 µM
COc1cc(C2S/C(=C/c3ccccc3)C(=O)N2c2cccc(Cl)c2)cc(OC)c1OC (centres undefined)	> 100 µM	
NC(N)=N/N=C\c1ccc(C2CCNCC2)cc1	> 100 µM	
CNS(=O)(=O)NNS(=O)(=O)c1cccc([N+](=O)[O-])c1	> 100 µM	
O=C1C=C(c2[nH]c3ccccc3c2C2=CC(=O)c3ccccc3C2=O)C(=O)c2ccccc21	> 100 µM	
CN1CCN(c2ccc3[nH]c(C4=C(O)c5nc(CCl)n(C)c5C(=O)C4=O)nc3n2)CC1	40.1 µM and 35.8 µM	16.5 µM
CS(=O)(=O)CCN(CC#N)Cc1ccc(-c2ccc3ncnc(Nc4ccc(OCc5cccc(F)c5)c(Cl)c4)c3c2)o1	> 25 µM	1.94 µM

Structure (SMILES)	TGI	GI50
CCC(=O)c1c(C(F)(F)F)n([O-])c2cc(N3CCNCC3)c(F)cc2[n+]1=O	22 µM	9.92 µM
CCCCCCCCCCCCCCCCCCOP1(=O)OCCO1	> 100 µM	
CCCCCCN1C(=O)CC(=O)N(CCCCCC)S1(=O)=O	> 100 µM	
CSc1nc(N)cc(Oc2ccc(-c3nc(Nc4cccc(C(F)(F)F)c4)n[nH]3)cc2)n1	16.3 µM	3.58 µM
O=C(/C=C/c1ccc(Cl)cc1)c1ccc(Cl)c(Cl)c1	> 100 µM	
O=C(CC1C(=O)Nc2ccccc2S1(=O)=O)Nc1cc(Cl)ccc1Cl (centres undefined)	60.8 µM	
C[C@H](NC(=O)c1c(N)nn2cccnc12)c1cc2cccc(C#Cc3cnn(C)c3)c2c(=O)n1-c1ccccc1	> 10 µM and 27.3 µM	8.35 µM and 6.26 µM
COc1ccc(C2C(C#N)=C(O)NC(O)=C2C#N)cc1OC	> 100 µM	
Nc1cccc(C2CCCc3c2[nH]c2ccccc32)c1 (centres undefined)	64.3 µM	
CC(OC(C)(C)C)[C@H](NC(=O)OCc1ccccc1)C(=O)NC(OCc1ccccc1)[C@H]1COC(C)(C)O1 (some centres undefined)	> 10 µM	
CC(NC(=O)OC(C)(C)C)C(=O)NC(Cc1ccccc1)C(=O)NCC(=O)ON=C1CCCC1 (centres undefined)	> 100 µM	
C=C1c2nc3ccccc3n2C=C(c2ccc(OC)cc2)N1c1ccccc1	> 100 µM	
COc1cccc(/C(COc2ccc3c(c2)oc(=O)c2ccccc23)=N\O)c1	> 100 µM	20.1 µM
CCNCC(O)COc1ccc2c(c1)[n+]([O-])nc(N)[n+]2[O-] (centres undefined)	> 100 µM	
CC(C)(Oc1ccc(Cl)cc1)C(=O)N(C(=O)N1CCN(c2ccccc2)CC1)c1ccccc1	> 100 µM	
COC12OCCN(CCO)C1=CC(=O)C1(C)N=NC(C)C12 (centres undefined)	> 100 µM	
CCOc1ccccc1N1C(=O)C(=O)C(c2nc3ccccc3s2)C(=O)C1=O	> 100 µM	
CCCCCCCCCC(CCCC(O)CC(=O)O)OC1OC(COC2OC(C)C(O)C(O)C2O)C(O)C(O)C1OC1OC(CO)C(O)C(O)C1OC1OC(C)C(OC(=O)CC(C)C)C(O)C1O (centres undefined)	> 60 µM	> 60 µM
c1ccc(-c2[o+]c(-c3ccccc3)c(-c3ccccc3)c(-c3ccccc3)c2-c2ccccc2)cc1	> 100 µM	
O=c1oc2ccc(Br)cc2c(=O)n1-c1ccc(Br)cc1F	14.4 µM	0.461 µM
CC(C)c1cc2c(c(O)c1O)[C@@]1(C)CCCC(C)(C)C1=C(O)C2	9.81 µM	
COc1ccc2c(C)cc(C)nc2n1	> 100 µM	
CC(=O)CC(=O)Nc1ccccc1[N+](=O)[O-]	> 100 µM	
Cc1nn(-c2ccccc2)c2nc3c(c(C)nn3-c3ccccc3)c(-c3ccc(C(F)(F)F)cc3)c12	> 100 µM	
O=C(NCCCN1CCC(N2CCCCC2)CC1)C1=Cc2cc(Br)ccc2OC1	22.5 µM	8.58 µM

Structure (SMILES)	TGI	GI50
Oc1c(I)cc(I)cc1CNCCN(Cc1ccccn1)Cc1ccccn1	2.56 µM	0.919 µM
CC(C)C(N=c1c2ccccc2n(O)c2ccccc12)C(=O)O (centres undefined)	> 100 µM	
COC(=O)Cc1c(C(=O)CC(C)(C)n2cnc(CCN3C(=O)CCC3=O)c2)[nH]c2ccccc12	> 100 µM	
Cc1cc2c(c3c1c1ccccc1n3C)C(=O)c1ccccc1C2=O	> 100 µM	
O=C1C(NCCF)=C(Cl)C(=O)c2ncccc21	2.21 µM	
COC(=O)C1(C(=O)OC)CC(=O)c2c(OC(=O)c3cccc(OC)c3C#N)ccc(OC(=O)c3cccc(OC)c3C#N)c2C1	> 100 µM	
CC(C)/C=N\N1C(N)=C(C#N)C(C#N)(C#N)C1C(C)C (centres undefined)	> 100 µM	
O=C1/C(=C\c2ccc(Cl)cc2)CCOc2c1ccc1ccccc21	79.9 µM	20.8 µM
CC(=O)c1c2c(cc3c1CC1(Cc4cc5c(cc4C1)CCCC5)C3)CCCC2	> 100 µM	
C#C[C@]1(O)CCC2C3CCc4cc(Oc5nc(F)nc(-n6c(C)nc7cc8ccccc8cc76)n5)ccc4C3CCC21C (some centres undefined)	> 100 µM	
COc1cc2c(/C=C3\C(=O)N(C)c4ccc(O)cc43)c[nH]c2cc1C	31 µM	8.85 µM
CN(C)c1nc(N)nc(CCl)n1	77.8 µM	
COC(=O)c1cc(C)n(CN(Cn2nc(C(=O)OC)cc2C)c2ccccc2)n1	> 100 µM	
COC(=O)c1cc2/c(=N/O)c3ccccc3sc2o1	> 100 µM	
Cc1nc(-c2nc(C)c(C(=O)/C=C/c3ccc([N+](=O)[O-])cc3)s2)sc1C(=O)/C=C/c1ccc([N+](=O)[O-])cc1	> 100 µM	
CCOCc1cc(=O)c2cc3c(cc2o1)OC(C)(C)CC3	> 100 µM	
O=C(NC/C(Cl)=C/Cl)Nc1c2ccccc2nc2ccccc12	> 100 µM	
CCCc1cn2c(/C=N/N=C(N)N)c(-c3c(OC)ccc(OC)c3[N+](=O)[O-])nc2s1	31.9 µM	
COc1ccc2oc(=N)c(C(N)=O)cc2c1	> 100 µM	
Clc1ccc(CNc2ccc3nc(CCC4CCCCC4)[nH]c3c2)cc1	> 100 µM	3.16 µM
O=C1Nc2ccccc2/C1=C\c1c[nH]c2ccc(Br)cc12	52.5 µM	3.94 µM
Cc1cc(C)c2c(c1)CC1(Cc3c(ccc(C)c3C)C1=O)C2=O (centres undefined)	> 100 µM	
COc1ccccc1-c1cc(=O)c2c(C)ccnc2[nH]1	> 100 µM	
COc1cc(C2CC(c3cccc(Nc4ccnc5cc(Cl)ccc45)c3)=NN2C=O)cc(OC)c1OC (centres undefined)	13.6 µM	2.24 µM
NC1CCCCC1N.O=C([O-])c1cc(S(=O)(=O)Nc2cc(S(=O)(=O)[O-])cc3cc(S(=O)(=O)[O-])cc(O)c23)ccc1[O-].[Pt+4]	> 100 µM	> 100 µM
